Reference: PubChem BioAssay AID1476 (National Center for Advancing Translational Sciences (NCATS), 2009)
About 4,500 (2.2%) of roughly 200,000 compounds were called active. Inconclusive results, whose numbers are uncertain, are shown with a selection of clear calls. The call rests on the fitted dose curve; in most records, active means well fitted inhibition curve with a large enough effect; inconclusive means small, poorly fitted or top-dose-only effect, or effect the other way; inactive means flat fitted curve, though single readings scatter. Potencies of inconclusive entries are doubtful fits and often do not repeat. A structure can be active in one record and inactive in another.

Biological target: Cruzipain (Trypanosoma cruzi) (UniProt P25779)
Chain of UniProt P25779 (P25779 whole entry, looked up): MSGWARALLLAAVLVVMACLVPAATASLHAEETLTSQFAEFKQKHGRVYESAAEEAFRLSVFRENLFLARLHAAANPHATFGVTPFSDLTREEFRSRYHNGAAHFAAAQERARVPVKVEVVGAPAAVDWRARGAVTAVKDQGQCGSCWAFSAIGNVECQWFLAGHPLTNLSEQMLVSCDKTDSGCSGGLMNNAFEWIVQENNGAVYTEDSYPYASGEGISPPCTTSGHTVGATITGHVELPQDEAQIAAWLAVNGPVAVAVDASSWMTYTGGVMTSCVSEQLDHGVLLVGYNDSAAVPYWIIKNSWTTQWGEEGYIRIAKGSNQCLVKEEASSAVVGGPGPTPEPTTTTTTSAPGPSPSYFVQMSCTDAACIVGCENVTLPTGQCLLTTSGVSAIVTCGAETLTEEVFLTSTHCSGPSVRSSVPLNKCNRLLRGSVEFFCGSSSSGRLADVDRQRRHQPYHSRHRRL
Experiment: qHTS Assay for Promiscuous and Specific Inhibitors of Cruzain (without detergent); further: nearly all actives have a fitted effect of over 40% in size;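 on max response, negative = inhibition: plate controls were enzyme without inhibitor for no effect and buffer without enzyme for full effect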
Conditions: purified cruzain, Z-FR-AMC fluorescence, no detergent
Method in brief: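 Detergent-free condition (0.00005% Triton X-100) in acetate buffer pH 5.5 with DTT. 1.5 nM enzyme and compound were pre-mixed 15 min, then 2 uM Z-FR-AMC substrate added; reaction progress from fluorescence change between first and third reads (60 s).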
Potency means the concentration at half of the fitted maximal effect; tags describe the fitted curve by direction and shape.

| Compound | Potency | max response, negative = inhibition |
| --- | --- | --- |
| S=C1NCCc2ccc(Cl)cc2C1c1ccccc1 (stereo not given) | inconclusive: 20 µM [inhibitor, partial curve] |  |
| Cc1cccc2sc(N)nc12 |  | inactive: -3.25% |
| CCOc1ccc(N(CC)S(=O)(=O)N2CCCC(C(=O)Nc3cc(Cl)ccc3OC)C2)cc1 (stereo not given) |  | inactive: -16% |
| COc1ccc(C(C(=O)NC2CCCC2)N(C(=O)c2snc(-c3ccc(F)cc3)c2N)c2cccc(F)c2)cc1 (stereo not given) | active: 10 µM |  |
| Cc1cc(Oc2ccc(-c3ccccc3)cc2)nc(N2CCOCC2)n1 | inconclusive: 39.8 µM [activator, single point] |  |
| Cc1ccccc1Nc1cc(C(=O)NCc2cccs2)c2ccccc2n1 | inconclusive: 39.8 µM [inhibitor, single point] |  |
| COc1ccccc1/C=C/c1nc(C#N)c(NCCc2ccccc2)o1 | active: 15.8 µM |  |
| Cc1cc(=O)n2nc(N3CCC(C(=O)NCc4ccc(F)cc4)CC3)sc2n1 |  | inactive: 7.58% |
| CCOc1ccc(NCc2cccn2-c2nnc(N3CCC(C(=O)NCCOC)CC3)s2)cc1 | inconclusive: 31.6 µM [activator, partial curve] |  |
| COCC(=O)N1CCC[C@@]2(CCN(C(=O)Nc3cccc(C#N)c3)C2)C1 |  | inactive: 3.2% |
| O=C1c2ccccc2C(=O)N1SC1CCCCC1 | active: 6.31 µM |  |
| CCn1cc(C(=O)NC2CCC(C)CC2)c(=O)c2cc(S(=O)(=O)N3CCCCC3)ccc21 (stereo not given) | inconclusive: 20 µM [activator, partial curve] |  |
| CCOC(=O)c1c(NC(=O)c2cccs2)sc2c1CCN(C(=O)OCC)C2 | inconclusive: 39.8 µM [activator, single point] |  |
| O=C(Cc1csc(Nc2nc(=S)[nH]c3ccccc23)n1)NCc1cccc(Cl)c1 | active: 3.98 µM |  |
| O=C(CN1C(=O)CCc2cc(S(=O)(=O)N3CCOCC3)ccc21)Nc1cccc(C(F)(F)F)c1 | inconclusive: 25.1 µM [activator, single point] |  |
| Nc1ccncc1 | active: 3.55 µM |  |
| Cc1ccc(S(=O)(=O)c2nnn3c2nc(Nc2cccc(C)c2)c2ccccc23)cc1 | inconclusive: 39.8 µM [inhibitor, single point] |  |
| CNc1oc(-c2ccccc2Cl)nc1P(=O)(c1ccccc1)c1ccccc1 | inconclusive: 6.31 µM [inhibitor, single point] |  |
| CN(C)c1ccc(NC(=O)CSc2nc(N)c(C(=O)Nc3ccc(N(C)C)cc3)s2)cc1 | inconclusive: 39.8 µM [inhibitor, single point] |  |
| COc1ccc(-n2cc(C(=O)NCc3ccccc3)c3ccccc3c2=O)cc1 |  | inactive: 2.94% |
| COc1ccc(C)cc1NC(=O)C(OC(=O)CNC(=O)c1ccc(Br)cc1)c1ccccc1 (stereo not given) | active: 10 µM |  |
| COC(=O)c1ccc(CSc2nc3c([nH]c4ccccc43)c(=O)n2-c2ccc(Cl)cc2)o1 |  | inactive: -3.35% |

| Compound | Potency | max response, negative = inhibition |
| --- | --- | --- |
| CN1C(=O)/C(=C/c2cn(CC(=O)N3CCCCC3)c3ccccc23)c2ccccc21 | inconclusive: 39.8 µM [activator, single point] |  |
| CN(C)c1ccc(C(CNS(=O)(=O)c2ccc(F)cc2)c2c[nH]c3ccccc23)cc1 (stereo not given) | active: 31.6 µM |  |
| CCCc1nc(SCC(=O)NCc2ccco2)c2c(=O)n(C)c(=O)n(C)c2n1 | inconclusive: 39.8 µM [inhibitor, single point] |  |
| COc1ccc(-c2cc(C(F)(F)F)n3nc(C(=O)Nc4cc(C)on4)cc3n2)cc1OC | inconclusive: 10 µM [activator, partial curve] |  |
| COc1cc2oc3ccccc3c2cc1N(CC(=O)N(C)C)S(=O)(=O)c1ccccc1 | inconclusive: 31.6 µM [activator, single point] |  |
| O=C(c1ccc(N2CN(C(=O)c3ccco3)c3nc4ccccc4nc32)cc1)N1CCOCC1 | inconclusive: 31.6 µM [activator, single point] |  |
| COc1ccc(-c2nn(-c3ccccc3)cc2/C=N/Nc2ccc3ccccc3n2)cc1OC | inconclusive: 15.8 µM [inhibitor, single point] |  |
| CC1CCc2nc3ncn(Cc4ccccc4C#N)c(=O)c3cc2C1 (stereo not given) |  | inactive: -10.6% |
| COc1ccc(-c2nsc(C(=O)N(c3ccc(F)cc3)C(C(=O)NC3CCCC3)c3ccc(OC)cc3)c2N)cc1 (stereo not given) | inconclusive: 25.1 µM [inhibitor, single point] |  |
| COc1cccc(N2CCN(C(=O)c3ccc(Cn4c(=O)[nH]c5cc(OC)c(OC)cc5c4=O)cc3)CC2)c1 | inconclusive: 7.94 µM [activator, full curve] |  |
| Clc1ccccc1SCc1nc2ccccc2[nH]1 |  | inactive: -0.47% |
| CCOc1ccccc1N1CC(c2nc3ccccc3n2CCOc2ccccc2)CC1=O (stereo not given) | inconclusive: 39.8 µM [activator, single point] |  |
| COC(=O)[C@@]1(Cc2ccc(OC)cc2)[C@H]2c3cc(C(=O)N4CCCC4)n(C[C@H](O)CO)c3C[C@H]2CN1C(=O)c1ccccc1 | inconclusive: 25.1 µM [activator, partial curve] |  |
| C[C@@H]1C(c2cccc(Cl)c2)=NN(c2ccccc2)[C@H]1C(=O)N1CCOC1=O | inconclusive: 50.1 µM [inhibitor, single point] |  |
| O=C(c1ccc2c(c1)N(Cc1ccc(Cl)cc1)C(=O)c1ccccc1S2=O)N1CCOCC1 (stereo not given) | inconclusive: 39.8 µM [activator, single point] |  |
| CCOC(=O)c1sc(NC(=O)CSc2nnc(C)s2)c(C(=O)OCC)c1C | inconclusive: 31.6 µM [activator, single point] |  |
| O=C(CNC(=O)c1cccc(F)c1)N/N=C/c1cc(Br)ccc1OC(=O)/C=C/c1ccco1 | inconclusive: 39.8 µM [inhibitor, single point] |  |
| O=C(Nc1ccc2nn(-c3ccccc3)nc2c1)c1cc2ccccc2o1 | inconclusive: 6.31 µM [inhibitor, single point] |  |
| O=C(OCCN=C1NS(=O)(=O)c2ccccc21)C1CC(=O)N(c2ccc3ccccc3c2)C1 (stereo not given) | inconclusive: 31.6 µM [activator, single point] |  |
| O=C(Nc1ccc(OC(F)(F)F)cc1)C1CCCN(S(=O)(=O)c2cccnc2)C1 (stereo not given) | inconclusive: 25.1 µM [activator, single point] |  |
| CCCCOC(=O)n1c(SCC(=O)N(CC)CC)nc2ccccc21 | inconclusive: 31.6 µM [activator, single point] |  |
| Cc1ccc(S(=O)(=O)Nc2ccccc2-c2ccccc2NS(=O)(=O)c2ccc(C)cc2)cc1 |  | inactive: -3.07% |

| Compound | Potency | max response, negative = inhibition |
| --- | --- | --- |
| COc1ccc(-n2c(C)cc(=O)c3c2CC(C)(C)CC3=O)cc1 |  | inactive: -4.53% |
| O=C(NCc1cccnc1)/C(=C/c1ccc(-c2cccc(C(F)(F)F)c2)o1)NC(=O)c1ccccc1 | inconclusive: 31.6 µM [activator, single point] |  |
| CCCCCCCCCCCCCCCC(N)=O |  | inactive: 3.5% |
| CCC(/C=N/NC(=O)C(=O)N/N=C/C(CC)CC)CC | inconclusive: 39.8 µM [inhibitor, single point] |  |
| CC(=O)Oc1c(C)cc(OCC(O)CNC(C)C)c(C)c1C (stereo not given) |  | inactive: -10.9% |
| Cc1ccc(NC(=O)Cn2nnc(C(=O)NCc3ccccc3)c2N)cc1C | inconclusive: 31.6 µM [inhibitor, single point] |  |
| O=C(Cn1cc(SCc2c(F)cccc2Cl)c2ccccc21)N1CCCCCC1 |  | inactive: -23.7% |
| Cc1ccc2sc(NC(=O)c3ccc(N4C(=O)CCC4=O)cc3)nc2c1C | inconclusive: 39.8 µM [inhibitor, single point] |  |
| CC(=O)N1CCC2(CC1)CN(Cc1ccccc1)C2 |  | inactive: -5.42% |
| CCCCn1c2ccccc2c2nnc(SCC(=O)NC3=NN=C(c4ccccc4)CS3)nc21 | inconclusive: 25.1 µM [inhibitor, single point] |  |
| Cc1ccc(/C=C2/NC(=O)N(Cc3ccc(Br)cc3)C2=O)o1 | inconclusive: 31.6 µM [inhibitor, single point] |  |
| CCc1cc(=O)oc2c3c(c(Cl)cc12)OCN(Cc1cccc(OC)c1)C3 | inconclusive: 5.01 µM [activator, partial curve] |  |
| COc1ccc(CC(=O)N2CCc3cc(OC)c(OC)cc3C2COc2ccc(OC)cc2)cc1 (stereo not given) | inconclusive: 31.6 µM [activator, single point] |  |
| CCC(=O)N1CCc2cc(Br)cc(S(=O)(=O)Nc3ccc(C)cc3C)c21 |  | inactive: -1.34% |
| COc1ccc(CCn2nnnc2C(CC(C)C)N2CCN(c3ncccn3)CC2)cc1OC (stereo not given) | inconclusive: 39.8 µM [activator, single point] |  |
| O=C(Oc1cccc(N2C(=O)C3C4c5ccccc5C(c5ccccc54)C3C2=O)c1)c1ccco1 (stereo not given) | inconclusive: 39.8 µM [inhibitor, single point] |  |
| CCOc1cc(CNC(=O)c2sc3ncnc(N(C)C4CCCCC4)c3c2C)ccc1OC | inconclusive: 39.8 µM [activator, single point] |  |
| C/C(=N\NC(=O)c1ccc(CN2CCOCC2)cc1)c1cccc([N+](=O)[O-])c1 |  | inactive: -9.22% |
| CC(C)(C)C(=O)Oc1cc(N)n(S(=O)(=O)c2ccc(F)cc2)n1 |  | inactive: 2.2% |
| Cn1cccc1C(=O)N1CCC2(CC1)CCN(c1cccc(-c3ccccc3)c1)CC2 | inconclusive: 39.8 µM [activator, single point] |  |
| CCOC(=O)C1=C(C)NC(=O)NC1c1ccccc1OCc1c(F)cccc1Cl (stereo not given) | inconclusive: 39.8 µM [inhibitor, single point] |  |
